# Measurements reported in PubChem BioAssay AID686979 (National Center for Advancing Translational Sciences (NCATS), 2013).
# The campaign covered roughly 420,000 compounds. About 50,000 (12%) were called active. Inconclusive means that the source gave no clear call. Such entries were picked first, then a sample of the others. The call rests on the fitted dose curve; in most records, active means well fitted inhibition curve with a large enough effect; inconclusive means small, poorly fitted or top-dose-only effect; inactive means flat fitted curve, though single readings scatter. Potencies of inconclusive entries are left out as doubtful fits.
# Test: qHTS for Inhibitors of human tyrosyl-DNA phosphodiesterase 1 (TDP1): qHTS in cells in presence of CPT; further: nearly all actives have a fitted effect of over 55% in size
# Details: chicken DT40 Tdp1-/-;hTDP1 cells + 20 nM CPT, ATP luminescence, 48 h; activity change, negative = growth inhibition: at 46.2 µM (top of the series)
# Description: Human tyrosyl-DNA phosphodiesterase 1 (TDP1) is a novel repair gene, and we propose to use it as a new target for anticancer drug development. TDP1 is not an essential protein, but under treatment with topoisomerase I poison (camptothecin: CPT), TDP1 works as a critical factor for cell survival. To directly identify novel TDP1 inhibitors active in a cellular environment, we have knocked-out the Tdp1 gene in chicken DT40 cells (Tdp1-/-) and generated a complemented counterpart cells that contains a stable transfection of the human TDP1 gene (Tdp1-/-;hTDP1 cells). For the primary screen, Tdp1-/-;hTDP1 cells will be exposed to small molecules in the presence or absence of CPT, and their growth kinetics will be evaluated after 48 hours by measuring ATP activity. […] The hit compounds will then be evaluated in the presence or absence of CPT using Tdp1-/- cells. […] In tertiary assays, biochemical gel-based assays will be used to assess whether the hit compounds specifically target TDP1. To this end, we have screened this cell line against the MLSMR in two primary screens. In one screen we add CPT and in the other we screen in the absence of CPT; this AID represents the screen where CPT was present. NIH Chemical Genomics Center [NCGC] NIH Molecular Libraries Probe Centers Network [MLPCN] MLPCN Grant: MH095538 Assay Submitter (PI): Yves Pommier, NCI
# DT40-hTDP1 cells with 20 nM Camptothecin (add 20 microL of 1 mM CPT stock in 1 L of cell culture medium) were dispensed at 400 cells/5microL/well in tissue culture treated 1536-well white wall/solid bottom assay plates (Greiner Bio-One North America, NC, U.S.A.) using a Multidrop Combi 8 channel dispenser (Thermo Fisher, Waltham, MA, USA). 23 nL compounds and controls were transferred using the pin tool (Kalypsys, San Diego, CA, USA) to the assay plates. The assay plates were then incubated at 37 masculineC for a minimum 48 hr. Three microL of Cell Titer Glo solution was added to the plates and incubated at RT in dark for 30 min. Luminescence was read using ViewLux (Perkin Elmer) with 1 sec exposure slow speed, high gain and 2x binning.
# On the % scale 0 is the no-effect control and ±100 the full control effect; potency means the concentration at half of the fitted maximal effect; tags describe the fitted curve by direction and shape.
Compound,Potency,"activity change, negative = growth inhibition"
Cc1cc2[nH]c(=O)c(=O)[nH]c2cc1S(=O)(=O)N(C)C1CCCCC1,active: 20.6 µM,
Cc1ccc(C2NC(=O)c3ccccc3N2)s1 (stereo not drawn),active: 5.8 µM,
C=CCc1ccccc1OCC(O)CN1CCN(c2ccccc2)CC1 (stereo not drawn),"inconclusive [inhibitor, single point]",
COc1cccc(-c2cc(C(=O)NCCc3ccccc3)no2)c1,,inconclusive: -15.6% [inhibitor]
CCNC(=O)N1c2ccc(OCC)cc2C(C)=CC1(C)C,"inconclusive [inhibitor, partial curve]",
COc1ccc(Nc2ncc3c(n2)CC(c2ccccc2)CC3=O)cc1 (stereo not drawn),"inconclusive [inhibitor, partial curve]",
CCc1nc2c(OCC(=O)c3ccc(Cl)cc3Cl)cccn2c1N(C=O)Cc1ccc(OC)cc1,active: 23.1 µM,
Cn1c(SCC(O)c2ccccc2)nnc1-c1ccc2ccccc2c1 (stereo not drawn),"inconclusive [inhibitor, single point]",
COc1ccc(NC(=O)c2nc[nH]c2C(=O)N[C@@H](C)C(=O)OC(C)(C)C)cc1,"inconclusive [inhibitor, single point]",
O=c1cnc2cnc(N3CCOCC3)nc2n1CCc1ccccc1,,inactive: 7.63%
Cc1ccc(C2(c3ccccc3)NC(=O)N(CC(=O)NC3(C#N)CCCC3)C2=O)cc1C (stereo not drawn),,inactive: -9.52%
CCOC(=O)c1ccc(NC(=O)CC2C(=O)N(c3cccc(OC)c3)C(=O)N2Cc2ccc(OC)cc2)cc1 (stereo not drawn),active: 20.6 µM,
O=c1ccc(-c2ccc(S(=O)(=O)Nc3ccccc3)o2)n[nH]1,,inactive: -6.29%
CC1Cc2cc(S(=O)(=O)N3CCN(c4ccc(Cl)cc4)CC3)ccc2N1C(=O)C1CC1 (stereo not drawn),active: 16.4 µM,
O=C(Cn1ccc2cc(S(=O)(=O)N3CCCC3)ccc21)NCCc1ccccc1,"inconclusive [inhibitor, single point]",
O=C(OCC(=O)N1CCN(C(=O)c2ccco2)CC1)c1cc(-c2cccc(Br)c2)nc2ccccc12,"inconclusive [inhibitor, partial curve]",
CCc1ccc(OCC2Cn3c(nc4c3c(=O)[nH]c(=O)n4C)O2)cc1 (stereo not drawn),"inconclusive [inhibitor, partial curve, poor fit]",
Cc1ccc(S(=O)(=O)Nc2nc3ccccc3nc2NCc2ccco2)cc1,"inconclusive [inhibitor, single point]",
CCNc1nc(NCC)nc(N/N=C/c2cc(OC)c(OC)c(OC)c2)n1,"inconclusive [inhibitor, single point]",
Cc1[nH]c2ccccc2c1SCc1nnc(SCc2ccc(Cl)cc2)n1C,"inconclusive [inhibitor, single point]",
COc1ccc(C(CC(=O)NCc2ccccc2)N2Cc3ccccc3C2=O)cc1 (stereo not drawn),"inconclusive [inhibitor, single point]",
O=C1C2C3CCC(O3)C2C(=O)N1c1nccs1 (stereo not drawn),,inactive: -3.52%
COc1cc(/C=C/C(=O)c2c(O)cc(C)oc2=O)cc(OC)c1O,"inconclusive [inhibitor, single point]",
CCC(C)CCN1C(Nc2ccccc2)=NC[C@@H]1C (stereo partly drawn),"inconclusive [inhibitor, single point]",
O=C(O)CCn1cc(/C=C/C(=O)c2ccc(Cl)cc2)c(-c2ccc(Br)cc2)n1,active: 16.4 µM,

Compound,Potency,"activity change, negative = growth inhibition"
CN(Cc1ccccc1)C(=O)CSc1nc2ccccc2n1Cc1ccccc1F,"inconclusive [inhibitor, partial curve, poor fit]",
CC(OC(=O)c1ccc(S(=O)(=O)N2CCOCC2)cc1)c1ccccc1 (stereo not drawn),"inconclusive [inhibitor, single point]",
S=C(NCCc1ccccc1)NCc1cccc(Cl)c1,,inactive: 1.49%
O=C(CCC1CCCN(C(=O)C2=CCCCC2)C1)N1CCN(c2ccccn2)CC1 (stereo not drawn),,inactive: -24.3%
CC(C)c1cnc2c(c1SCC(=O)NCc1ccccc1)c(=O)n(C)c(=O)n2C,"inconclusive [inhibitor, single point]",
CC(C)c1ccc(/C=C/C(=O)NC(=S)NN2CCOCC2)cc1,"inconclusive [inhibitor, single point]",
COc1ccc2nc(SCC(=O)N3CCNC3=O)[nH]c2c1,,inconclusive: -31.8% [inhibitor]
CCOC(=O)C1C(=O)CC(C)(O)C(C(=O)OCC)C1c1ccco1 (stereo not drawn),active: 18.4 µM,
COc1cccc(/C=C/c2ccnc3ccccc23)c1OC,"inconclusive [inhibitor, single point]",
CC(C)C(=O)Nc1nnc(S(=O)(=O)N(C)c2ccc(Cl)cc2)s1,,inactive: -2.86%
COc1cc(CNn2cn[nH]c2=S)cc(Cl)c1OCc1ccc(F)cc1,"inconclusive [inhibitor, single point]",
CC(=O)N(C)c1ccc(N2CCOCC2)c2c1C(=O)c1ccccc1C2=O,,inactive: -29.4%
COCCNC(=O)c1ccc2c3n(nc2c1)-c1ccccc1CO3,"inconclusive [inhibitor, single point]",
CCc1c(C#N)c(SCc2c(C)noc2C)nc2c1C(=O)CC(C)(C)C2,active: 25.9 µM,
COc1ccc(C(=O)NC(=S)N(C)C2CCCCC2)cc1Br,"inconclusive [inhibitor, single point]",
COc1cc2c(cc1OC)C(COc1ccc([N+](=O)[O-])cc1)N(C(C)=O)CC2 (stereo not drawn),active: 23.1 µM,
Cc1sc2c(c1C)c(=O)n(-c1cccc(C(F)(F)F)c1)c(=O)n2Cc1ccc(F)cc1,,inconclusive: -33.4% [inhibitor]
COc1cccc(/C=N/N2CCN(c3ccncc3S(=O)(=O)N3CCCCC3)CC2)c1,"inconclusive [inhibitor, partial curve]",
CC(NC(=O)c1cc([N+](=O)[O-])cc([N+](=O)[O-])c1)C1CC2CCC1C2 (stereo not drawn),,inactive: -22.7%
CCN(CC)S(=O)(=O)c1ccc(C)c(NC(=O)COC(=O)C=C(C)C)c1,"inconclusive [inhibitor, single point]",
Cc1nn(Cc2ccccc2Cl)c(Cl)c1/C=C/C(=O)OCC(=O)NC1CCS(=O)(=O)C1 (stereo not drawn),,inactive: 20.9%
COc1ccc2nc(NC(=O)c3cc(C)oc3C)sc2c1,"inconclusive [inhibitor, partial curve, poor fit]",
CC1CC(C)CN(CCCNC(=O)CN2C(=O)CSc3ccc(S(=O)(=O)N4CCCCC4)cc32)C1 (stereo not drawn),"inconclusive [inhibitor, partial curve]",
O=[N+]([O-])c1ccccc1CN1CCN(c2ncccn2)CC1,,inactive: -10.6%
COc1cccc(CNC(=O)COC(=O)c2c(NC(C)=O)sc(C)c2C)c1,,inactive: -27.7%

Compound,Potency,"activity change, negative = growth inhibition"
COC(=O)CNC(=O)C(C)(C)Oc1ccc(Cl)cc1,,inactive: -20.1%
Cc1cc(/N=C/C=C2/N(C)c3ccccc3C2(C)C)n(CCC#N)n1,active: 8.2 µM,
O=c1c(-c2ccccc2)nc2ccccc2n1C(c1ccccc1)c1nc2ccccc2[nH]1 (stereo not drawn),,inactive: -25.1%
O=C(Cc1ccc(F)cc1)Nc1cccc(-c2ccc3nncn3n2)c1,"inconclusive [inhibitor, single point]",
CC(C)(C)c1cc(NC(=O)Nc2ccc(Br)cc2Cl)no1,active: 20.6 µM,
COc1ccc(CNC(=O)c2cnc3cc(C)ccn3c2=O)cc1,"inconclusive [inhibitor, full curve, poor fit]",
CCOC(=O)c1ccccc1NC(=O)CSc1nc2[nH]ncc2c(=O)[nH]1,,inactive: -26.6%
CC(=O)/C=C1\SC(CC(=O)O)C(=O)N1c1ccccc1 (stereo not drawn),,inactive: -12.3%
CCOC(=O)c1c(C)oc2nc(C)nc(NCc3cccc(OC)c3)c12,active: 16.4 µM,
CCCCNC(=O)C(=O)c1ccccc1NC(C)=O,,inactive: -7.11%
O=c1oc(-c2ccc(Cl)cc2[N+](=O)[O-])nc2ccccc12,"inconclusive [inhibitor, partial curve]",
CN(CC(=O)Nc1ccccc1C(F)(F)F)C(=O)CN1C(=O)C2CCCCC2C1=O (stereo not drawn),"inconclusive [inhibitor, single point]",
O=C(c1ccccc1)c1ccc2nc(Nc3ccccc3Cl)c3nncn3c2c1,"inconclusive [inhibitor, partial curve]",
CC1CCCCC1NC(=O)CN1C(=O)c2ccccc2S1(=O)=O (stereo not drawn),,inactive: -4.95%
COc1ccc(Cl)cc1C(=O)NC(=S)Nc1cc(-c2nc3ccccc3[nH]2)ccc1C,"inconclusive [inhibitor, single point]",
COc1cc(C(=O)N/C(=C\c2cn(C)c3ccccc23)C(=O)NCCCn2ccnc2)cc(OC)c1OC,,inactive: 5.17%
O=C(Nc1cccc([N+](=O)[O-])c1)Nc1ccc2c(c1)CCC2,active: 20.6 µM,
CCOCN(C(=O)CSc1nc2ccccc2[nH]1)c1c(C)cccc1CC,active: 14.6 µM,
CCCCCCCCN1C(=O)[C@H](CC(=O)N2CCCCC2)C[C@@]2(C(=O)OC)CCCCC=C12,"inconclusive [inhibitor, single point]",
C/C(CC(=O)NCc1ccc(Cl)cc1)=N\NC(=O)Cc1ccccc1,"inconclusive [inhibitor, single point]",
CCc1nnc(NC(=O)CCC(=O)N2CCC(Cc3ccccc3)CC2)s1,"inconclusive [inhibitor, single point]",
Cc1ccccc1-c1nc(CS(=O)(=O)CC(=O)NCCCN2CCCC2=O)c(C)o1,,inactive: -7.4%
CCCCc1nc2sc3c(SCCN(C)C)ncnc3c2c2c1CCC2,"inconclusive [inhibitor, single point]",
